Experimental data taken from the supplement of paper PMC7726561.
Whole data set: some 1,400 sequences, median “thermal melting temperature (Tm) of peptide-HLA complex” near 60, cut for the lowest 2% near 45. The list shows a part of the results.

B1: unnamed (peptide)
chain: APSPVIPRL
B2: unnamed (peptide)
chain: RPSGAVVTL
B3: unnamed (peptide)
chain: APKPRLNQL
B4: unnamed (peptide)
chain: YPAAKRVKL
B5: unnamed (peptide)
chain: FPRSPGQPSSL
B6: unnamed (peptide)
chain: SVRPAVLQV
B7: unnamed (peptide)
chain: HPQWYPARQSL
B8: unnamed (peptide)
chain: VWDPRVSVL
B9: unnamed (peptide)
chain: MPYNYPVLL
B10: unnamed (peptide)
chain: GPRSSLRVL
B11: unnamed (peptide)
chain: APRFISPASQL
B12: unnamed (peptide)
chain: RPMPDIDTL
B13: unnamed (peptide)
chain: LPRAGGPLGL
B14: unnamed (peptide)
chain: KPHLPSVTYL
B15: unnamed (peptide)
chain: YPQGQAPPL
B16: unnamed (peptide)
chain: SPRLPVGGF
B17: unnamed (peptide)
chain: KPQSFQVIL
B18: unnamed (peptide)
chain: APKSPSSEWL
B19: unnamed (peptide)
chain: RPSGPSKAL
B20: unnamed (peptide)
chain: APPEYHRKAV
B21: unnamed (peptide)
chain: LPWASTHSL
B22: unnamed (peptide)
chain: SPSPLRAGVDI
B23: unnamed (peptide)
chain: PARVALSL
B24: unnamed (peptide)
chain: SPDIKQEL
B25: unnamed (peptide)
chain: QPKLPMRTL
B26: unnamed (peptide)
chain: SPRPNHSYIF
B27: unnamed (peptide)
chain: SPQGQFVVL
B28: unnamed (peptide)
chain: GPLPRTVEL
B29: unnamed (peptide)
chain: MPSEQIRNQL
B30: unnamed (peptide)
chain: SPRPALPALL
B31: unnamed (peptide)
chain: QVRLPLGTL
B32: unnamed (peptide)
chain: RPREVTVSL
B33: unnamed (peptide)
chain: APRQVLDLEDL
B34: unnamed (peptide)
chain: SPIYISRII
B35: unnamed (peptide)
chain: FPVLPGSHL
B36: unnamed (peptide)
chain: SPNSKVNTL
B37: unnamed (peptide)
chain: IPSSHPVSL
B38: unnamed (peptide)
chain: LPSPSPRISL
B39: unnamed (peptide)
chain: VPDTSRIYVAL
B40: unnamed (peptide)
chain: KPASVFVQL
B41: unnamed (peptide)
chain: IPEVSRAVI
B42: unnamed (peptide)
chain: HPIEGSTTVF
B43: unnamed (peptide)
chain: QPLARPNTL
B44: unnamed (peptide)
chain: HPAAKMIVM
B45: unnamed (peptide)
chain: SPRPPLISV
B46: unnamed (peptide)
chain: QPLLREVL
B47: unnamed (peptide)
chain: SPNNPFSRVAL
B48: unnamed (peptide)
chain: MPPSGPRGTL
B49: unnamed (peptide)
chain: RPVLWVGV
B50: unnamed (peptide)
chain: IPTSARSML
B51: unnamed (peptide)
chain: LPAEQRDFL
B52: unnamed (peptide)
chain: GPIYPGHGM
B53: unnamed (peptide)
chain: SPFSSRSPSL
B54: unnamed (peptide)
chain: SPHPGLLLDL
B55: unnamed (peptide)
chain: APRAPSAL
B56: unnamed (peptide)
chain: TPESGRGAF

Biological target: HLA-B*07:02
Assay: thermal melting temperature (Tm) of peptide-HLA complex; higher = more thermostable pHLA complex
Conditions: C1R-B*07:02
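Further: cell lysates heated 10 min at 37–73 °C, remaining pHLA pulled down with pan-class I antibody, peptides quantified by DIA-MS versus 37 °C, Tm where half the complex is lost.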

Sequence	thermal melting temperature [°C]
B1	61.4
B2	58.1
B3	53.2
B4	58.2
B5	59.7
B6	57.8
B7	57.8
B8	53.2
B9	60.7
B10	58.9
B11	61.1
B12	60.4
B13	60.6
B14	60.8
B15	59.5
B16	62.2
B17	61.1
B18	51.9
B19	61.4

Sequence	thermal melting temperature [°C]
B20	51
B21	58.1
B22	61.8
B23	63.4
B24	57.6
B25	57
B26	57.6
B27	60.9
B28	59.9
B29	56.8
B30	60.2
B31	60.7
B32	59.8
B33	60.9
B34	58.8
B35	61.9
B36	58.1
B37	56.2
B38	60.6

Sequence	thermal melting temperature [°C]
B39	63.3
B40	61.5
B41	61.2
B42	51.8
B43	59.2
B44	56.4
B45	62
B46	61.2
B47	58.8
B48	53.6
B49	60.8
B50	59.9
B51	61.5
B52	59.2
B53	45.4
B54	57.2
B55	53.4
B56	53.7
